Data reported in patent US20250230255A1 (BIOTHEUS, published 2025).
Read-outs that look alike come from different tables or passages of the source.

T1: human CD39 on cells (human, UniProt P49961 1-510)
T1 sequence: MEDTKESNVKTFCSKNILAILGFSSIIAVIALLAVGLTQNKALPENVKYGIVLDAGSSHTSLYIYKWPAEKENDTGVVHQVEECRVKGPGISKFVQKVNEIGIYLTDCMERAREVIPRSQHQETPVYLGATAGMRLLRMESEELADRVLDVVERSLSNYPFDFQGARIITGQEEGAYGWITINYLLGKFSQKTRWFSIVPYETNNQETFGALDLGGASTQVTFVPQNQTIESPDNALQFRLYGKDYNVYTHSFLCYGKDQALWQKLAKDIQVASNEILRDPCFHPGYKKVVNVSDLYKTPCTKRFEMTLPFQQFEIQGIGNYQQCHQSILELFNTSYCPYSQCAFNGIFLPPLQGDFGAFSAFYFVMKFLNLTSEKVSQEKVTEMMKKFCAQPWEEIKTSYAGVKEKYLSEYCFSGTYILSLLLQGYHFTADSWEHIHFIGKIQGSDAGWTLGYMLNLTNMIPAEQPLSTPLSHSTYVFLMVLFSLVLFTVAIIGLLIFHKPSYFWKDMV

T2: cynomolgus CD39 on cells (cynomolgus, UniProt P49961 6-510 (human entry))
T2 construct: also called cyCD39; CHO-cyCD39 cells
T2 chain: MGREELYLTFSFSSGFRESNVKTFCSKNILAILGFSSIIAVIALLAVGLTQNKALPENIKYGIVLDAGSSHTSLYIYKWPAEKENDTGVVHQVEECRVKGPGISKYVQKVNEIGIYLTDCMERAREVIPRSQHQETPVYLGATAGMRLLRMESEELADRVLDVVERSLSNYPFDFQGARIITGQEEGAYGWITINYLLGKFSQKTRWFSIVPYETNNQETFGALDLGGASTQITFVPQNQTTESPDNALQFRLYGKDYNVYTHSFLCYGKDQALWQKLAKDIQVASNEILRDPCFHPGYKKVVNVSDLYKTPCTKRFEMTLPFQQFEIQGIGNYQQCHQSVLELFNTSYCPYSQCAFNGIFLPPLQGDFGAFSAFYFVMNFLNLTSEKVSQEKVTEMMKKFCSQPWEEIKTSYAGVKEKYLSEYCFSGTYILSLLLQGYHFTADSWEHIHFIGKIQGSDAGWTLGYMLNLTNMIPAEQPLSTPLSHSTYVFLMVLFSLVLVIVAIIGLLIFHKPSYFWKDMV

T3: human CD39 (recombinant protein in solution) (human, UniProt P49961 38-478, limits assumed)
T3 construct: also called soluble human CD39; soluble CD39
T3 sequence: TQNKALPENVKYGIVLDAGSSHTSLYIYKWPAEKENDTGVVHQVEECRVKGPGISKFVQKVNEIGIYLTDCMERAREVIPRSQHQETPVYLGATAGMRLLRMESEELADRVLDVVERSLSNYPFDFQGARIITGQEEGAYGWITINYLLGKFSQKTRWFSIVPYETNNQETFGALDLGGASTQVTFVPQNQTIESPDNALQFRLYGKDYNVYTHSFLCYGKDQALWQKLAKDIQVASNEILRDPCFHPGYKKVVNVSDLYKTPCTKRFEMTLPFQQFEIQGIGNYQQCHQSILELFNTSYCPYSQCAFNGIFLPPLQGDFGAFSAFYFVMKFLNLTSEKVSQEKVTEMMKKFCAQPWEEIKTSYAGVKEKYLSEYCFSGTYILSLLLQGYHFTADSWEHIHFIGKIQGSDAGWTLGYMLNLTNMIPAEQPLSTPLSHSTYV


Legend:
human CD39 on cells [1] = target: T1, human CD39 on cells; assay: cell-based or functional assay
cynomolgus CD39 on cells = target: T2, cynomolgus CD39 on cells; assay: flow cytometry on CHO-cyCD39 cells, MFI titration
[2] = target: T3, human CD39 (recombinant protein in …); assay: BLI (ForteBio), method of Example 3, human CD39 in solution
Experimental: (§1) ForteBio affinity test was conducted according to the existing methods (Estep, P et al., High throughput solution based measurement of antibody-antigen affinity and affinity binding. MAbs, 2013.5 (2): p. 270-8). In short, the sensor is balanced offline in the analysis buffer for 30 min, and then tested online for 60 s to establish baseline. After that, the AHQ sensor is online loaded with the above-obtained purified antibody, and put into 100 nM human CD39 (SEQ ID NO: 28) for 5 min, and then transferred the sensor to PBS for dissociation for 5 min. A 1:1 binding model is used for the dynamic analysis.
The humanized sequences are subjected to the humanized antibody vector construction, expression and purification according to the method described in Example 2. […] The purified humanized antibodies were subjected to the affinity test at protein level according to the method described in Example 3.

human CD39 on cells [3] = target: T1, human CD39 on cells; assay: flow cytometry on CHO-hCD39 cells, MFI titration
human CD39 on cells [4] = target: T1, human CD39 on cells; assay: cell-based or functional assay; remark: listed apart in the source
[5] = target: T3, human CD39 (recombinant protein in …); assay: cell-based or functional assay
human CD39 on cells [6] = target: T1, human CD39 on cells; assay: cell-based or functional assay; remark: listed apart in the source
[7] = target: T3, human CD39 (recombinant protein in …); assay: cell-based or functional assay; remark: listed apart in the source
human CD39 on cells [8] = target: T1, human CD39 on cells; assay: cell-based or functional assay; remark: listed apart in the source
[9] = target: T3, human CD39 (recombinant protein in …); assay: BLI (ForteBio), method of Example 3, human CD39 in solution; remark: listed apart in the source
Experimental: as §1

Row | Binder | EC50 of blocking CD39 enzyme activity in PBMC system (human CD39 on cells [1]) | EC50 (cynomolgus CD39 on cells) | Kd [2] | koff [2] | kon [2] | EC50 (human CD39 on cells [3]) | EC50 of blocking CD39 enzyme activity of human CD39 overexpression cells (human CD39 on cells [4]) | EC50 of blocking enzyme activity of soluble human CD39 [5] | EC50 of blocking CD39 enzyme activity in PBMC system (1:1 mixture) (human CD39 on cells [6]) | EC50 of blocking enzyme activity of soluble human CD39 (1:1 mixture) [7] | EC50 of blocking CD39 enzyme activity of human CD39 overexpression cells (human CD39 on cells [8]) | EC50 of blocking CD39 enzyme activity in PBMC system (human CD39 on cells [6]) | EC50 of blocking enzyme activity of soluble human CD39 [7] | Kd [9] | koff [9] | kon [9]
1 | HZ-R-Ye-19(1)-037-2 (Fc fusion) EVQLLESGGGLVQPGGSLRLSCAVSRGTFSEYSMSWFRQAPGQERDFVTAISGFGHITHYADSVKGRFTISRDNSKNTVYLQMNSLRAEDTAVYYCAAAWQTSPRRMMQMAGSITWGQGTQVTVSS[human IgG1 Fc with changes cut from this listing] | 6.76 nM | 2.53 nM | 7.6 nM | 0.00198 s⁻¹ | 261000 M⁻¹ s⁻¹ | 4.98 nM | 1.14 nM | 19.5 nM | – | – | – | – | – | – | – | –
2 | HZ-R-Ye-19(1)-037-3 + HZ-R-Ye-19(1)-046-2 (other) chain 1: EVQLLESGGGLVQPGGSLRLSCAVSRGTFSEYSMSWFRQAPGKEREFVTAISGFGHITHYADSVKGRFTISRDNSKNTVYLQMNSLRAEDTAVYYCAAAWQTSPRRMMQMAGSITWGQGTQVTVSS[human IgG1 Fc with changes cut from this listing] chain 2: EVQLLESGGGLVQPGGSLRLSCAASGDIFSINYMSWYRQAPGNERELVAAITGRGNTNYADSVKGRFTISRDNSKNTVYLQMNSLRAEDTAVYYCNAWDYSDADEGPLREYDYWGQGTQVTVSS[human IgG1 Fc with changes cut from this listing] | – | – | – | – | – | – | – | – | 0.408 nM | 5.05 nM | – | – | – | – | – | –
3 | HZ-R-Ye-19(1)-046-3 (Fc fusion) EVQLLESGGGLVQPGGSLRLSCAASGDIFSINYMSWYRQAPGKERELVAAITGRGNTNYADSVKGRFTISRDNSKNTVYLQMNSLRAEDTAVYYCNAWDYSDYDEGPLREYDYWGQGTQVTVSS[human IgG1 Fc with changes cut from this listing] | – | 2.23 nM | 2.5 nM | 0.000842 s⁻¹ | 334000 M⁻¹ s⁻¹ | 3.77 nM | 0.606 nM | 20.6 nM | – | – | – | – | – | – | – | –
4 | 46-37-Fc (bispecific antibody, also called bi-epitopic anti-CD39 antibody with N-terminal based structure) EVQLLESGGGLVQPGGSLRLSCAASGDIFSINYMSWYRQAPGNERELVAAITGRGNTNYADSVKGRFTISRDNSKNTVYLQMNSLRAEDTAVYYCNAWDYSDADEGPLREYDYWGQGTQVTVSSGGGGAGGGGAGGGGAGGGGAEVQLLESGGGLVQPGGSLRLSCAVSRGTFSEYSMSWFRQAPGKEREFVTAISGFGHITHYADSVKGRFTISRDNSKNTVYLQMNSLRAEDTAVYYCAAAWQTSPRRMMQMAGSITWGQGTQVTVSS[human IgG1 Fc with changes cut from this listing] | – | – | – | – | – | – | – | – | – | – | – | – | – | 1.6 nM | 0.000211 s⁻¹ | 130000 M⁻¹ s⁻¹

Continued by falling EC50 (cynomolgus CD39 on cells), values first:

Row | EC50 of blocking CD39 enzyme activity in PBMC system (human CD39 on cells [1]) | EC50 (cynomolgus CD39 on cells) | Kd [2] | koff [2] | kon [2] | EC50 (human CD39 on cells [3]) | EC50 of blocking CD39 enzyme activity of human CD39 overexpression cells (human CD39 on cells [4]) | EC50 of blocking enzyme activity of soluble human CD39 [5] | EC50 of blocking CD39 enzyme activity in PBMC system (1:1 mixture) (human CD39 on cells [6]) | EC50 of blocking enzyme activity of soluble human CD39 (1:1 mixture) [7] | EC50 of blocking CD39 enzyme activity of human CD39 overexpression cells (human CD39 on cells [8]) | EC50 of blocking CD39 enzyme activity in PBMC system (human CD39 on cells [6]) | EC50 of blocking enzyme activity of soluble human CD39 [7] | Kd [9] | koff [9] | kon [9] | Binder
5 | 3.97 nM | 4.82 nM | 8.6 nM | 0.00202 s⁻¹ | 234000 M⁻¹ s⁻¹ | 2.2 nM | 1.51 nM | 19.4 nM | – | – | – | – | – | – | – | – | HZ-R-Ye-19(1)-037-4 (Fc fusion) EVQLLESGGGLVQPGGSLRLSCAVSRGTFSEYSMSWFRQAPGKGLEFVTAISGFGHITHYADSVKGRFTISRDNSKNTVYLQMNSLRAEDTAVYYCAAAWQTSPRRMMQMAGSITWGQGTQVTVSS[human IgG1 Fc with changes cut from this listing]
6 | 0.0288 nM | 3.98 nM | 3.4 nM | 0.000829 s⁻¹ | 247000 M⁻¹ s⁻¹ | 1.55 nM | 0.549 nM | 19.7 nM | – | – | 1.01 nM | 0.565 nM | 12.4 nM | – | – | – | HZ-R-Ye-19(1)-046-2 (Fc fusion) EVQLLESGGGLVQPGGSLRLSCAASGDIFSINYMSWYRQAPGNERELVAAITGRGNTNYADSVKGRFTISRDNSKNTVYLQMNSLRAEDTAVYYCNAWDYSDADEGPLREYDYWGQGTQVTVSS[human IgG1 Fc with changes cut from this listing]
7 | 2.15 nM | 3.38 nM | 7.7 nM | 0.00195 s⁻¹ | 253000 M⁻¹ s⁻¹ | 4.75 nM | 0.659 nM | 18.1 nM | – | – | 3.15 nM | 0.818 nM | 12.6 nM | – | – | – | HZ-R-Ye-19(1)-037-3 (Fc fusion) EVQLLESGGGLVQPGGSLRLSCAVSRGTFSEYSMSWFRQAPGKEREFVTAISGFGHITHYADSVKGRFTISRDNSKNTVYLQMNSLRAEDTAVYYCAAAWQTSPRRMMQMAGSITWGQGTQVTVSS[human IgG1 Fc with changes cut from this listing]
8 | 1.57 nM | 3.27 nM | 0.43 nM | 0.000153 s⁻¹ | 355000 M⁻¹ s⁻¹ | 2.73 nM | 0.968 nM | 17.2 nM | – | – | – | – | – | – | – | – | HZ-R-Ye-19(1)-046-1 (Fc fusion) EVQLLESGGGLVQPGRSLRLSCAASGDIFSINYMGWYRQAPGNERELVAAITGRGNTNYADSVKGRFTISRDNSKNTVYLQMNSLKPEDTAVYYCNAWDYSDYDEGPLREYDYWGQGTQVTVSS[human IgG1 Fc with changes cut from this listing]
9 | 0.897 nM | 2.41 nM | 3.4 nM | 0.000956 s⁻¹ | 278000 M⁻¹ s⁻¹ | 2.51 nM | 0.982 nM | 22 nM | – | – | – | – | – | – | – | – | HZ-R-Ye-19(1)-046-4 (Fc fusion) EVQLLESGGGLVQPGGSLRLSCAASGDIFSINYMSWYRQAPGKGLELVAAITGRGNTNYADSVKGRFTISRDNSKNTVYLQMNSLRAEDTAVYYCNAWDYSDYDEGPLREYDYWGQGTQVTVSS[human IgG1 Fc with changes cut from this listing]
